Reference: the supplement of paper PMC4604168 (melanoma cell lines)
Some of the results follow. Repeats are few or missing, and single values can be far off.

test system: UACC62; assay: cell count relative to DMSO control; melanoma cells; higher = more viable cells; details: library dose: standard library concentration; 72 h
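Further: cells treated in 1,536-well plates, then fixed and DAPI-stained, with nuclei counted from automated high-throughput microscope images.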

Row | SMILES | cell count [%]
1 | COc1cc([C@@H]2c3cc4c(cc3[C@@H](O[C@@H]3O[C@@H]5CO[C@@H](C)O[C@H]5[C@H](O)[C@H]3O)[C@H]3COC(=O)[C@H]23)OCO4)cc(OC)c1O [etoposide] + Oc1cc(-c2nc(-c3ccccc3)[nH]c2-c2ccncc2)ccc1Cl [L779450] (first compound 0.1 µM, partner dose 1 µM) | 50.5
2 | C[C@]1(O)C[C@@H](c2nc(-c3ccc4ccc(-c5ccccc5)nc4c3)c3c(N)nccn32)C1 + CCCCCCCCCCCC1=C(O)C(=O)C=C(O)C1=O [Embelin] (first compound 2 µM, partner dose 6 µM) | 51.2
3 | CCN(CC)CCNC(=O)c1c(C)[nH]c(/C=C2\C(=O)Nc3ccc(F)cc32)c1C [sunitinib] + CCCCCCCCCCCC1=C(O)C(=O)C=C(O)C1=O [Embelin] (first compound 2 µM, partner dose 6 µM) | 64.7
4 | C[C@]1(O)C[C@@H](c2nc(-c3ccc4ccc(-c5ccccc5)nc4c3)c3c(N)nccn32)C1 + O=C(Nc1ccccc1)c1cc([N+](=O)[O-])ccc1Cl [GW9662] (first compound 2 µM, partner dose 10 µM) | 84.2
5 | COc1cc([C@@H]2c3cc4c(cc3[C@@H](O[C@@H]3O[C@@H]5CO[C@@H](C)O[C@H]5[C@H](O)[C@H]3O)[C@H]3COC(=O)[C@H]23)OCO4)cc(OC)c1O [etoposide] + CCc1ccc(CCOc2ccc(CC3SC(=O)NC3=O)cc2)nc1 [pioglitazone] (first compound 0.1 µM, partner dose 10 µM) | 68.5
6 | C[C@]1(O)C[C@@H](c2nc(-c3ccc4ccc(-c5ccccc5)nc4c3)c3c(N)nccn32)C1 + O=c1cc(-c2cccc3c2Sc2ccccc2S3)oc(N2CCOCC2)c1 [KU55933] (first compound 2 µM, partner dose 5 µM) | 56.9
7 | C[C@]1(O)C[C@@H](c2nc(-c3ccc4ccc(-c5ccccc5)nc4c3)c3c(N)nccn32)C1 + O=C1NC(=O)/C(=C/c2ccc(-c3ccc(F)cc3O)o2)S1 [AS252424] (first compound 2 µM, partner dose 5 µM) | 87.7
8 | Cn1cnc2c(F)c(Nc3ccc(Br)cc3Cl)c(C(=O)NOCCO)cc21 [selumetinib] + CCCCCCCCCCCC1=C(O)C(=O)C=C(O)C1=O [Embelin] (first compound 0.075 µM, partner dose 6 µM) | 67.2
9 | CCN(CC)CCNC(=O)c1c(C)[nH]c(/C=C2\C(=O)Nc3ccc(F)cc32)c1C [sunitinib] + O=C(O)C(=O)Nc1sc2c(c1C(=O)O)CCNC2 [TCS401] (first compound 2 µM, partner dose 8.33333 µM) | 60.7
10 | C[C@]1(O)C[C@@H](c2nc(-c3ccc4ccc(-c5ccccc5)nc4c3)c3c(N)nccn32)C1 + Oc1cc(-c2nc(-c3ccccc3)[nH]c2-c2ccncc2)ccc1Cl [L779450] (first compound 2 µM, partner dose 1 µM) | 47.9
11 | COc1cc([C@@H]2c3cc4c(cc3[C@@H](O[C@@H]3O[C@@H]5CO[C@@H](C)O[C@H]5[C@H](O)[C@H]3O)[C@H]3COC(=O)[C@H]23)OCO4)cc(OC)c1O [etoposide] + COC(=O)c1sccc1S(=O)(=O)Nc1ccc(Nc2ccccc2)cc1OC [GSK0660] (first compound 0.1 µM, partner dose 5 µM) | 64.2
